# In article PMC12136788:
# The other results are listed elsewhere or left out.
# T1: UNK ZnF1-3 (human, UniProt Q9C0B0 31-174)
# T1 sequence: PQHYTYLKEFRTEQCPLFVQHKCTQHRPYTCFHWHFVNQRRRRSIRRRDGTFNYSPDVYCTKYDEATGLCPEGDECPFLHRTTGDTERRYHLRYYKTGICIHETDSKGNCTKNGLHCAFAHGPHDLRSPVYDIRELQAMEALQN
# B1: chr5:66692119:66692120:-_ENSMUSG00000029207_ENSMUST00000159786|mus_hu|FALSE|FALSE (ssRNA)
# RNA: GGGAGUUCUACAGUCCGACGAUCAAUACCACUGCGUAAGGAAUUUGGACAUCUUUCUCCCACUCGUGUAGGGAAUUCUAAGAUUCCCUGACAAUAGAUCUUUCCAUACCUGCUCUUCUUAGUAUAUGCCCAGAAUCAUUCUGGCAACAGAGGAUUGAGCAUCA
# B2: chr1:220276048:220276049:+_ENSG00000067704_ENST00000302637|hu_hu|motif|central (ssRNA)
# RNA: GGGAGUUCUACAGUCCGACGAUCGCAAACAGCUUCAUUGGCUGGAAUCGUCCAAGGUUGUGUGGUCCAGACCAAAAUACGGACAGGAGAUGAACCAUCUAUAAGAGAUGCCAAUUUUGGAGAAGGCUUUAAGAGAGGAAAUUUCAACAGAGGAUUGAGCAUCA
# B3: 18900816_18902213_1052_CDS_ENSG00000157106_ENST00000446231|human|control|control (ssRNA)
# RNA: GGGAGUUCUACAGUCCGACGAUCGAAGAUCUUCUCAGCCUCAUAGCUCAGAGAAGCACAAAGAAGGCCAAGACAGCAAGCUCCCUCCUGUCUCAACUCCUGAAGCAAUUUGCUACUUUCAUUAAGCACGUCAUGUACAGCAGCCAACAGAGGAUUGAGCAUCA
# B4: chr2:202488911:202488912:-_ENSG00000155755_ENST00000286196|hu_mus|hu_hu_hu_mus_False|18_88 (ssRNA)
# RNA: GGGAGUUCUACAGUCCGACGAUCAUUGAAACAUUUUUCAUAAUCUCAGAGAUGUUUUCAGCAUUAUGUAACAAAAGCUCAAUUGUAAAUACAUGUAUCUUAUAAAAAUACACUUAAAUUUAAAAACGGGGAGCGCAGGCGCCACAACAGAGGAUUGAGCAUCA
# B5: chrX:100668114:100668115:+_ENSG00000126945_ENST00000316594|hu_mus|FALSE|FALSE (ssRNA)
# RNA: GGGAGUUCUACAGUCCGACGAUCUCCCAUCAUCUGGCUACCGUAAGCACCACCACUUGCCCCUGCUGUAGAAUUCAAAAAGAGCUCUACAUAGCUAUGAUCAUAAGCUCCUCCACUUGUCCCUGCGGUAGAAUUCAAGAAGAGCAACAGAGGAUUGAGCAUCA
# B6: chr2:100010981:100010982:+_ENSG00000158417_ENST00000289371|hu_mus|FALSE|FALSE (ssRNA)
# RNA: GGGAGUUCUACAGUCCGACGAUCUUCCAACAUCACUGAAGCCUUCAUAACGUCCUUUUUAUGGACUGGGCCAAUGUUAAUUCCUGCAUAUGGCACCUCUGAUGUUUUCAGAAAUUCAAGAAGAGCUUCCAAAGAGCCCAGUGUCAACAGAGGAUUGAGCAUCA
# B7: 112341754_112342337_807_CDS_ENSG00000108055_ENST00000361804|human|control|control (ssRNA)
# RNA: GGGAGUUCUACAGUCCGACGAUCCUCUCGCUUAGCAGAAAGCUCAUCAAGUUUGGCACGAGUCUCGUUAAGUUCCUGAUUGUAAAUGGUAUAUUCCAGGGCUCGUCUCAUUUUAUCCCACUUCUGAUACUGAGCUAGUUCUUCCAACAGAGGAUUGAGCAUCA
# B8: chrX:70775091:70775092:+_ENSG00000147162_ENST00000373719|hu_hu|FALSE|FALSE (ssRNA)
# RNA: GGGAGUUCUACAGUCCGACGAUCAUCAGGGAAAUGUGGUUGUAGUUCGAUAGCCCGCCUGUAGGUGUCUAUUGCCAGAUCUAUCAGGCCUUGCUCAUAGUAUACACAAGCCAGGUUGCCGUGCACCACUGCGUGAUUUGGACUCAACAGAGGAUUGAGCAUCA
# B9: chr1:46159212:46159213:+_ENSG00000159596_ENST00000372025|hu_mus|hu_hu_hu_mus_True|1_1 (ssRNA)
# RNA: GGGAGUUCUACAGUCCGACGAUCUCUGAUCCCUCCCAAGAAAGCUAGGAAACCGGCUCCAUAAGCCAUCUGAGUGAAAGCUAGGACGGGGAUAUAAGACUUUGUUAUUACCAUGAGAAGUGGGGGAGCAGUAAAGGGGAUUAGCAACAGAGGAUUGAGCAUCA
# B10: 113130990_113140974_2106_CDS_ENSG00000149294_ENST00000316851|human|control|control (ssRNA)
# RNA: GGGAGUUCUACAGUCCGACGAUCGAAGAUGACGAUGAGGAUGCCCACGAUGGCCCCGGUGCUCAGGCCUGAGGUGGGGCUGCCGUUGGCUGGGAUGGCUGUGGGCUGGGCCGAGGUCCUGAACACAAAAUGAGCCGCCUUGGACAACAGAGGAUUGAGCAUCA
# B11: 78798891_78799011_3486_CDS_ENSMUSG00000033088_ENSMUST00000109689|mouse|control|control (ssRNA)
# RNA: GGGAGUUCUACAGUCCGACGAUCCUCUUGCCCGAAGAGGCGCUCCACCUCUGCUCGGCCAGGGCUGCGGGUACGGCCCUCGUUGCUGCCCUGUGCCUGGGGCUCUGGCCCCCUCUGAGCCAGCCUCCUGGGUGGGGGCAGGUCCAACAGAGGAUUGAGCAUCA
# B12: 88187188_88193511_567_CDS_ENSMUSG00000036902_ENSMUST00000109686|mouse|control|control (ssRNA)
# RNA: GGGAGUUCUACAGUCCGACGAUCGAGCUCAAACUGGCAAUCUCCAAGGUAAGUAAAGUCUGGAUCUGGGAUGAAUGAGUAUUUUGCUCGAAAUCCUAGUCCUUCAAGUUCUUCAUCAGAACUAAAUUUAAUCCACAUGAAUCUCAACAGAGGAUUGAGCAUCA
# B13: 28111919_28113614_405_CDS_ENSMUSG00000024219_ENSMUST00000088027|mouse|control|control (ssRNA)
# RNA: GGGAGUUCUACAGUCCGACGAUCUACUAUCUGGGCGUCUCCUUUCCACGCUGCCAAGUGCAGCGGGUAGCAGCCUUUCGAGUCAGCAACGUUGGUCAGCGCGUCGUUCCUCAGAAGGACCUCGACCACAUCCCUGUGUCCAUUCAACAGAGGAUUGAGCAUCA
# B14: chr7:141441981:141441982:+_ENSG00000106028_ENST00000265304|hu_mus|FALSE|FALSE (ssRNA)
# RNA: GGGAGUUCUACAGUCCGACGAUCCUCAUGUCUUACAAACUGACGAAAUACCUGUAACACAGGUCUUCGAAACAUGGCUUCUGUUUUUCUUACAACCUAAUCUUUAGGCUUUUCCUAAAGGAAAGAAAGAAAAGAGAAAAAUGACAACAGAGGAUUGAGCAUCA
# Molecular target: T1, UNK ZnF1-3
# Assay: nsRBNS (natural sequence RNA bind-n-seq); RBNS binding buffer (assumed for nsRBNS): 25 mM Tris pH 7.5, 150 mM KCl, 3 mM MgCl2, 0.01% Triton X-100, 500 ug/ml BSA, 20 U/ml SUPERase-In, 4 C; UNK is unkempt and MSI1 is Musashi-1; names of the RNAs are library labels; protein concentration not given here; high values mean tight binding
row,Binder,binding signal [enrichment R]
1,B1,0.742
2,B2,1.75
3,B3,1.22
4,B4,1.97
5,B5,1.65
6,B6,0.872
7,B7,0.614
8,B8,0.708
9,B9,0.957
10,B10,1.35
11,B11,0.399
12,B12,0.867
13,B13,0.515
14,B14,0.637
